# Some of the results follow.
# What was measured:
# Assay in all cases: glycan array binding signal (z-score within array); higher = stronger binding
# Details in all cases: glycan notation: IUPAC condensed, linker removed
# [1] = biological target: Gal(b1-4)GlcNAc(b1-6)GalNAc
# Summary of the method: (§1)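 Glycan array binding is given as a within-array Z-score, which can be read as non-binding when negative. The arrays, 3228 of them, came from the Consortium for Functional Glycomics database and were retained only where the protein sequence was available. Z-scores were averaged across arrays of the same protein sequence at different concentrations or buffers and across linkers.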
# [2] = biological target: Gal(b1-4)GlcNAc(b1-6)[Gal(b1-3)]GalNAc
# Summary of the method: as §1
# [3] = biological target: Gal(b1-4)GlcNAc(b1-6)[Gal(b1-4)GlcNAc(b1-3)]GalNAc
# Summary of the method: as §1
# [4] = biological target: Gal(b1-4)GlcNAc6P
# Summary of the method: as §1
# [5] = biological target: Gal(b1-6)Gal
# Summary of the method: as §1
# [6] = biological target: Gal3S(b1-3)GalNAc
# Summary of the method: as §1
# [7] = biological target: Gal3S(b1-3)GlcNAc
# Summary of the method: as §1
# [8] = biological target: Gal3S(b1-3)[Fuc(a1-4)]GlcNAc
# Summary of the method: as §1
# [9] = biological target: Gal3S(b1-4)Glc
# Summary of the method: as §1
# [10] = biological target: Gal3S(b1-4)Glc6S
# Summary of the method: as §1
# [11] = biological target: Gal3S(b1-4)GlcNAc
# Summary of the method: as §1
# [12] = biological target: Gal3S(b1-4)[Fuc(a1-3)]Glc6S
# Summary of the method: as §1
# [13] = biological target: Gal3S(b1-4)[Fuc(a1-3)]GlcNAc
# Summary of the method: as §1
# [14] = biological target: Gal3S(b1-4)[Fuc(a1-3)]GlcNAc6S
# Summary of the method: as §1
# [15] = biological target: Gal3S4S(b1-4)GlcNAc
# Summary of the method: as §1
# [16] = biological target: Gal3S6S(b1-4)GlcNAc
# Summary of the method: as §1
# [17] = biological target: Gal3S6S(b1-4)GlcNAc6S
# Summary of the method: as §1
# [18] = biological target: Gal4S(b1-4)GlcNAc
# Summary of the method: as §1
# [19] = biological target: Gal4S6S(b1-4)GlcNAc
# Summary of the method: as §1
# [20] = biological target: Gal6P(b1-4)GlcNAc
# Summary of the method: as §1
# [21] = biological target: Gal6S(b1-3)GlcNAc
# Summary of the method: as §1
# [22] = biological target: Gal6S(b1-3)GlcNAc6S
# Summary of the method: as §1
# [23] = biological target: Gal6S(b1-4)Glc
# Summary of the method: as §1
# [24] = biological target: Gal6S(b1-4)Glc6S
# Summary of the method: as §1
# [25] = biological target: Gal6S(b1-4)GlcNAc
# Summary of the method: as §1
# [26] = biological target: Gal6S(b1-4)GlcNAc6S
# Summary of the method: as §1
# [27] = biological target: GalNAc(a1-3)Gal
# Summary of the method: as §1
# [28] = biological target: GalNAc(a1-3)GalNAc
# Summary of the method: as §1
# [29] = biological target: GalNAc(a1-3)GalNAc(b1-3)Gal(a1-4)Gal(b1-4)Glc
# Summary of the method: as §1
# [30] = biological target: GalNAc(a1-3)GalNAc(b1-3)Gal(a1-4)Gal(b1-4)GlcNAc
# Summary of the method: as §1
# [31] = biological target: GalNAc(b1-3)Gal
# Summary of the method: as §1
# [32] = biological target: GalNAc(b1-3)Gal(a1-4)Gal(b1-4)GlcNAc
# Summary of the method: as §1
# [33] = biological target: GalNAc(b1-3)Gal(a1-4)Gal(b1-4)GlcNAc(b1-3)Gal(b1-4)Glc
# Summary of the method: as §1
# [34] = biological target: GalNAc(b1-3)Gal(a1-6)Gal(b1-4)Glc
# Summary of the method: as §1
# [35] = biological target: GalNAc(b1-3)GalNAc
# Summary of the method: as §1
# [36] = biological target: GalNAc(b1-3)GlcNAc
# Summary of the method: as §1
# [37] = biological target: GalNAc(b1-4)Gal(b1-4)Glc
# Summary of the method: as §1
# [38] = biological target: GalNAc(b1-4)GlcNAc
# Summary of the method: as §1
binder,measurement,setting,value
PX15618A-bth-503-24-503 (Bacteroides thetaiotaomicron) (protein) NKSEDKLSGDDFWAQGNETNAEAFLLSIYNSFRNATMSQRPFLTYSGDMRCAPITAYSTGDKYVAYLANNDMGELRNTYPDDARGGLIMQWDVFYTAIQDANILLAEIDKVPGMDELKRSRFKAEAIFMRSLSYFFIVRAFGDVPYYTNAYNEAPLPRTNMVIVLQNCLADLQPLLDDDPGAEVLPWSYSSYSSKGIRASRGSVIALMMHINLWLVQFDAQNKEQYYRNVVSLGEELERNNGAYSLLDINRSSVIFAGGSDEGLFEIAQNINFNEIFMMNAKFSDNVSYSCLNKSMPLFCYSGDYLMTLFPMYEDDARKELWFDEKIYSTSVSSSAPKEIKKFWNIDTYGNGTITSNSGNQIVFRYAGALLLYAEALAALGTNDTKACELLNRVRNRAHASEINTSGSELMDAIFWERCRELIGEGHYYYDLVRTGKVYNRNYCMNPMTRTNFNVGAWTWPIHRNALKNNTQIGLNLFWE,glycan array binding signal (z-score),[1],-0.209
same,glycan array binding signal (z-score),[2],-0.622
same,glycan array binding signal (z-score),[3],-0.3
same,glycan array binding signal (z-score),[4],0.481
same,glycan array binding signal (z-score),[5],-0.39
same,glycan array binding signal (z-score),[6],-0.337
same,glycan array binding signal (z-score),[7],-0.228
same,glycan array binding signal (z-score),[8],-0.063
same,glycan array binding signal (z-score),[9],-0.362
same,glycan array binding signal (z-score),[10],-0.24
same,glycan array binding signal (z-score),[11],0
same,glycan array binding signal (z-score),[12],-0.345
same,glycan array binding signal (z-score),[13],-0.052
same,glycan array binding signal (z-score),[14],0.663
same,glycan array binding signal (z-score),[15],-0.763
same,glycan array binding signal (z-score),[16],3.43
same,glycan array binding signal (z-score),[17],-0.637
same,glycan array binding signal (z-score),[18],-0.744
same,glycan array binding signal (z-score),[19],0.007
same,glycan array binding signal (z-score),[20],-0.181
same,glycan array binding signal (z-score),[21],-0.189
same,glycan array binding signal (z-score),[22],0.358
same,glycan array binding signal (z-score),[23],0.311
same,glycan array binding signal (z-score),[24],0.559
same,glycan array binding signal (z-score),[25],0.345
same,glycan array binding signal (z-score),[26],-0.45
same,glycan array binding signal (z-score),[27],0.872
same,glycan array binding signal (z-score),[28],-0.657
same,glycan array binding signal (z-score),[29],-0.52
same,glycan array binding signal (z-score),[30],-0.025
same,glycan array binding signal (z-score),[31],-0.131
same,glycan array binding signal (z-score),[32],0.057
same,glycan array binding signal (z-score),[33],0.79
same,glycan array binding signal (z-score),[34],-0.587
same,glycan array binding signal (z-score),[35],-0.605
same,glycan array binding signal (z-score),[36],1.02
same,glycan array binding signal (z-score),[37],0.391
same,glycan array binding signal (z-score),[38],-0.273

# Source: the supplement of paper PMC8728848
